Some of the results follow.
T1: UNK ZnF1-6 (called full-length) (human, UniProt Q9C0B0 30-357)
T1 sequence: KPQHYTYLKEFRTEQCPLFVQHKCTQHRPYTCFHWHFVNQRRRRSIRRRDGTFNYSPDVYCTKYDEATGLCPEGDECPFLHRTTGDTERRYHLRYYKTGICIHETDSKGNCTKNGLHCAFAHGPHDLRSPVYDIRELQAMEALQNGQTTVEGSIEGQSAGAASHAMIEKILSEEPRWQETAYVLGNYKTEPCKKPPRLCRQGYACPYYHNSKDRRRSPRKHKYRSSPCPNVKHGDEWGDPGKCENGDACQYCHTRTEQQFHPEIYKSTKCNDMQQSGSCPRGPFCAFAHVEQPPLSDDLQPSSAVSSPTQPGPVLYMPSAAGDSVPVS

B1: chr5:14398947:14399058:+|CDS|ENSG00000038382|unk|FALSE|unique (ssRNA)
RNA: GGGAGUUCUACAGUCCGACGAUCCCCAAAAACCUUAAUUCGAAAGGGUCGAGAACGGCAUCUCUUCCUUUUUGAAAUGUCCUUAGUAUUUAGUAAAGAAGUGAAAGAUUCCAGUGGGAGAAGCAAGUACCUUUAUAAAAGCAACAACAGAGGAUUGAGCAUCA
B2: chr22:49888080:49888186:+|3pUTR|ENSG00000100426|unk|FALSE|unique (ssRNA)
RNA: GGGAGUUCUACAGUCCGACGAUCUGGCUUAUUAACAGGGAAGAAGCUUGUUAUAUUCCAGUUGUAAGAAUAGCCUUAGUGUUUAGAUUUUUUUAUGAUAGGGAAGAUGCGGCCAUCACUGGGAUAUUUUCAAAUCCCAAGGACCAACAGAGGAUUGAGCAUCA
B3: chr1:228098150:228098251:+|3pUTR|ENSG00000143761|msi1_unk|total|mutant (ssRNA)
RNA: GGGAGUUCUACAGUCCGACGAUCGCACCGUGCUGUAAAUGUGGCAGACGCAGCCUGCGGCCAGGCUUUUUAUUUAAUGUAAACCGUUUUUGUUUCCAAUGAGGCAGUUUCUGGUACUCCUAUGCAAUAUUACUCAGCUUUUUUCAACAGAGGAUUGAGCAUCA
B4: ENSG00000070961:be:win_6301|3pUTR|ENSG00000070961|bound_else_gene|NA|bound_elsewhere_windowed (ssRNA)
RNA: GGGAGUUCUACAGUCCGACGAUCUGAGUUACUCCUUGUCAUCUUACAAAUAUGUGAUAUGGUAAUUUUCAUAACAGAUGUCAGUUUUGAACCAAGAAUUGGUGAUUUGUUUAUAAGAAAAAAACUGGCUUCAUUUCUGUGAAACAACAGAGGAUUGAGCAUCA
B5: chr14:60975662:60975785:-|CDS|ENSG00000126814|unk|FALSE|unique (ssRNA)
RNA: GGGAGUUCUACAGUCCGACGAUCGAAAGAAAACCCUCUGUGCACGUUGUCAUGAACUUGCCAGCAAAAGCUAUAGAGUUUCUUAGUGCUUUCAAGUGGCUUUUAGAUGGGCAGCCAUGCAGCAGUGAGUUCCUUCCCAUAGUGCAACAGAGGAUUGAGCAUCA
B6: chr8:94832020:94832135:+|CDS|ENSG00000164941|unk|total|mutant (ssRNA)
RNA: GGGAGUUCUACAGUCCGACGAUCGGUACCCGAAGCAGCCCUAAAAUUAAACAAGGAUCUUUAUGUCCAUACGAUGAGAACUCCCGAUUUAUUGGCCAUGGAACCAGGCAUGGUAAAUGGAGAAACUGAGAGUUCUACUGCUGGCAACAGAGGAUUGAGCAUCA
B7: chr4:100395340:100398373:-|three_prime_utr|ENSG00000164035|control|control|control (ssRNA)
RNA: GGGAGUUCUACAGUCCGACGAUCGGGGCUCUCCUGUUCUCUCACAUUUAAAAAUUCCAUUACUCCAUUUACAGGAGCGUUCCUAGGAAAAGGAAUUUUAGGAGGAGAAUUUGUGAGCAGUGAAUCUGACAGCCCAGGAGGUGGCAACAGAGGAUUGAGCAUCA
B8: chr12:103777333:103777434:-|3pUTR|ENSG00000111696|msi1|total|mutant (ssRNA)
RNA: GGGAGUUCUACAGUCCGACGAUCUCCUGAACAUUUACGGGCUAUGCAUUGGGAACUGCAGGGGCACAGUGAUGGGCAAAGAUCCGCUGCUUCCAGAAGGCUGAUUUCGUGGGCUCCACAAUGGUAAAACGCUGCUGUGAGUGGCAACAGAGGAUUGAGCAUCA
B9: chr1:65389253:65389354:+|CDS|ENSG00000116675|unk|total|mutant (ssRNA)
RNA: GGGAGUUCUACAGUCCGACGAUCGUCCGAUGCAUGUGAUGUACCAGAAAAAUAUCCUCAGCUAUUUCAGGUGACACUGGAUGCCGAACUACAGCCCCAUGACAAAGUAACCGACUUAACUCCACCAUGGGAACAUUACUGCACCAACAGAGGAUUGAGCAUCA
B10: chr2:39051162:39051270:-|CDS|ENSG00000115904|unk|FALSE|unique (ssRNA)
RNA: GGGAGUUCUACAGUCCGACGAUCAAAUAUAUUUAGUCGCAUAGUAGAUAUACAUGAACUUAGUGUAAAGUUACUGGGCCAUAUAGAAGAUACAGUAGAAAUGACAGAUGAAGGCAGUCCCCAUCCACUAGUAGGAAGCUGCUUCAACAGAGGAUUGAGCAUCA
B11: chr17:29166540:29166641:-|CDS|ENSG00000196535|unk|total|mutant (ssRNA)
RNA: GGGAGUUCUACAGUCCGACGAUCCUGGACUCGGGCCACCUAAGUACAGCCAGCUCCAGCGAUGACCUCAAGGGUGAGGAGGGCCGCUUCCGUGGCUCGGUGCUGCAGCGGGCAGCCAAGUUCGGCUCACUGGCCAAGCAGAACCAACAGAGGAUUGAGCAUCA
B12: chr2:181535040:181538244:-|three_prime_utr|ENSG00000188452|control|control|control (ssRNA)
RNA: GGGAGUUCUACAGUCCGACGAUCAGCAUGGAAGAAAUGAUUCCAAAGUAACAUGUAAUUGUUUCUAAAAGAAAUGUACAAACUAGAAUUUUAAUAUAAAGAAAUGUGGCCAUGCUUUAAACCUGUGGUCCCCACCCUUUUUGGCAACAGAGGAUUGAGCAUCA
B13: ENSG00000136451:be:win_2151|3pUTR|ENSG00000136451|bound_else_gene|NA|bound_elsewhere_windowed (ssRNA)
RNA: GGGAGUUCUACAGUCCGACGAUCUAUGCAAAGCAUAUGAUAAUUUAUCAUUCUAACUUCAACGUAUAAUAGGGAUUGUGACCUGAUAUUUGGAGAUGUAAAUAUUGCUCAGCAUAUUAAUCCCGAUGGAAUAUAGCAUUGUAGCAACAGAGGAUUGAGCAUCA
B14: chr13:27440139:27440263:-|CDS|ENSG00000122033|unk|total|mutant (ssRNA)
RNA: GGGAGUUCUACAGUCCGACGAUCAAUGAAGGAAAAAAGACAAAAAAGAAUAAAACAGCUUUCCGUAACGUUGGAAGAAAAAUCCGUCAGCGAGUUAUUCACUUAUUUGAUGAGAAGGGCAAUGAUUUGGGAAACAUGCACCGACAACAGAGGAUUGAGCAUCA

The binders below were run against T1, UNK ZnF1-6 (called full-length) (assay: nsRBNS (natural sequence RNA bind-n-seq); RBNS binding buffer (assumed for nsRBNS): 25 mM Tris pH 7.5, 150 mM KCl, 3 mM MgCl2, 0.01% Triton X-100, 500 ug/ml BSA, 20 U/ml SUPERase-In, 4 C; UNK is unkempt and MSI1 is Musashi-1; names of the RNAs are library labels; protein concentration not given here; high values mean tight binding).
In the case of B1, the binding signal is reported as 2.82 enrichment R. With B2 the binding signal was 11.3 enrichment R. Work on B3 yielded a binding signal of 0.896 enrichment R. For B4, the binding signal was 0.375 enrichment R. For B5, the binding signal was 0.713 enrichment R. For B6, the binding signal was 1.08 enrichment R. B7 was tested, and the binding signal was 0.781 enrichment R. For B8, the binding signal was 0.856 enrichment R. For B9, the binding signal was 0.674 enrichment R. For B10, the binding signal was 3.02 enrichment R. B11 showed a binding signal of 0.832 enrichment R. For B12, the binding signal was 5.14 enrichment R. Binder B13 has a binding signal of 0.422 enrichment R. With B14 the binding signal was 0.393 enrichment R.
